What all share (test): glycan array binding signal (z-score within array); higher = stronger binding
Conditions in all cases: glycan notation: IUPAC condensed, linker removed

The target of experiment [1] is Gal(b1-4)GlcNAc(b1-2)Man(a1-6)[GlcNAc(b1-2)Man(a1-3)]Man(b1-4)GlcNAc(b1-4)GlcNAc. The method, boiled down:
(§1)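 The binding signal is a Z-score computed within each array. Data were drawn from 3228 arrays in the Consortium for Functional Glycomics database, restricted to those with a known protein sequence. Scores were averaged over arrays of the same protein sequence at different concentrations or buffers, and over linkers, and negative values can be taken as non-binding.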

The target of experiment [2] is Gal(b1-4)GlcNAc(b1-2)Man(a1-6)[Man(a1-3)]Man(b1-4)GlcNAc(b1-4)GlcNAc. The method in brief: as §1
Experiment [3] deals with Gal(b1-4)GlcNAc(b1-2)[Gal(b1-4)GlcNAc(b1-4)]Man(a1-3)[Gal(b1-4)GlcNAc(b1-2)Man(a1-6)]Man(b1-4)GlcNAc(b1-4)GlcNAc. The method, boiled down:
as §1

Experiment [4] deals with Gal(b1-4)GlcNAc(b1-2)[Gal(b1-4)GlcNAc(b1-4)]Man(a1-3)[Gal(b1-4)GlcNAc(b1-2)[Gal(b1-4)GlcNAc(b1-6)]Man(a1-6)]Man(b1-4)GlcNAc(b1-4)GlcNAc. The method in brief: as §1
Experiment [5] addresses Gal(b1-4)GlcNAc(b1-2)[Gal(b1-4)GlcNAc(b1-4)]Man(a1-3)[GlcNAc(b1-4)][Gal(b1-4)GlcNAc(b1-2)Man(a1-6)]Man(b1-4)GlcNAc(b1-4)GlcNAc. The method in brief: as §1
For experiment [6], the target named is Gal(b1-4)GlcNAc(b1-2)[Gal(b1-4)GlcNAc(b1-4)]Man(a1-3)[GlcNAc(b1-4)][Gal(b1-4)GlcNAc(b1-2)[Gal(b1-4)GlcNAc(b1-6)]Man(a1-6)]Man(b1-4)GlcNAc(b1-4)GlcNAc. The method, boiled down: as §1
Experiment [7] has as its target Gal(b1-4)GlcNAc(b1-2)[Gal(b1-4)GlcNAc(b1-6)]Man(a1-6)[Gal(b1-4)GlcNAc(b1-2)Man(a1-3)]Man(b1-4)GlcNAc(b1-4)GlcNAc. The method, boiled down:
as §1

Experiment [8] deals with Gal(b1-4)GlcNAc(b1-2)[Gal(b1-4)GlcNAc(b1-6)]Man(a1-6)[Gal(b1-4)GlcNAc(b1-2)Man(a1-3)]Man(b1-4)GlcNAc(b1-4)[Fuc(a1-6)]GlcNAc. The method, boiled down: as §1
Experiment [9] has as its target Gal(b1-4)GlcNAc(b1-2)[Gal(b1-4)GlcNAc(b1-6)]Man(a1-6)[GlcNAc(b1-4)][Gal(b1-4)GlcNAc(b1-2)Man(a1-3)]Man(b1-4)GlcNAc(b1-4)GlcNAc. The method in brief:
as §1

Experiment [10] deals with Gal(b1-4)GlcNAc(b1-2)[Gal(b1-4)GlcNAc(b1-6)]Man(a1-6)[GlcNAc(b1-4)][Gal(b1-4)GlcNAc(b1-2)[Gal(b1-4)GlcNAc(b1-4)]Man(a1-3)]Man(b1-4)GlcNAc(b1-4)[Fuc(a1-6)]GlcNAc. The method in brief: as §1
In experiment [11] the target is Gal(b1-4)GlcNAc(b1-3)Gal(b1-3)GalNAc. The method, boiled down:
as §1

Experiment [12] addresses Gal(b1-4)GlcNAc(b1-3)Gal(b1-3)GlcNAc. The method, boiled down:
as §1

The target in experiment [13] is Gal(b1-4)GlcNAc(b1-3)Gal(b1-4)Glc. The method, boiled down:
as §1

Experiment [14] deals with Gal(b1-4)GlcNAc(b1-3)Gal(b1-4)GlcNAc. The method in brief: as §1
The target in experiment [15] is Gal(b1-4)GlcNAc(b1-3)Gal(b1-4)GlcNAc(b1-2)Man(a1-3)[Gal(b1-4)GlcNAc(b1-3)Gal(b1-4)GlcNAc(b1-2)Man(a1-6)]Man(b1-4)GlcNAc(b1-4)GlcNAc. The method, boiled down:
as §1

Experiment [16] concerns the target Gal(b1-4)GlcNAc(b1-3)Gal(b1-4)GlcNAc(b1-2)Man(a1-3)[Gal(b1-4)GlcNAc(b1-3)Gal(b1-4)GlcNAc(b1-2)Man(a1-6)]Man(b1-4)GlcNAc(b1-4)[Fuc(a1-6)]GlcNAc. The method in brief: as §1
Experiment [17] addresses Gal(b1-4)GlcNAc(b1-3)Gal(b1-4)GlcNAc(b1-2)[Gal(b1-4)GlcNAc(b1-3)Gal(b1-4)GlcNAc(b1-6)]Man(a1-6)[Gal(b1-4)GlcNAc(b1-3)Gal(b1-4)GlcNAc(b1-2)Man(a1-3)]Man(b1-4)GlcNAc(b1-4)GlcNAc. The method, boiled down: as §1
The target in experiment [18] is Gal(b1-4)GlcNAc(b1-3)Gal(b1-4)GlcNAc(b1-2)[Gal(b1-4)GlcNAc(b1-3)Gal(b1-4)GlcNAc(b1-6)]Man(a1-6)[Gal(b1-4)GlcNAc(b1-3)Gal(b1-4)GlcNAc(b1-2)Man(a1-3)]Man(b1-4)GlcNAc(b1-4)[Fuc(a1-6)]GlcNAc. The method, boiled down:
as §1

The target of experiment [19] is Gal(b1-4)GlcNAc(b1-3)Gal(b1-4)GlcNAc(b1-3)Gal(b1-4)GlcNAc. The method, boiled down: as §1
Experiment [20] concerns the target Gal(b1-4)GlcNAc(b1-3)Gal(b1-4)GlcNAc(b1-3)Gal(b1-4)GlcNAc(b1-2)Man(a1-3)[Gal(b1-4)GlcNAc(b1-3)Gal(b1-4)GlcNAc(b1-3)Gal(b1-4)GlcNAc(b1-2)Man(a1-6)]Man(b1-4)GlcNAc(b1-4)GlcNAc. The method in brief:
as §1

The target in experiment [21] is Gal(b1-4)GlcNAc(b1-3)Gal(b1-4)GlcNAc(b1-3)Gal(b1-4)GlcNAc(b1-2)Man(a1-3)[Gal(b1-4)GlcNAc(b1-3)Gal(b1-4)GlcNAc(b1-3)Gal(b1-4)GlcNAc(b1-2)Man(a1-6)]Man(b1-4)GlcNAc(b1-4)[Fuc(a1-6)]GlcNAc. The method in brief: as §1
In experiment [22] the target is Gal(b1-4)GlcNAc(b1-3)Gal(b1-4)GlcNAc(b1-3)Gal(b1-4)GlcNAc(b1-2)[Gal(b1-4)GlcNAc(b1-3)Gal(b1-4)GlcNAc(b1-3)Gal(b1-4)GlcNAc(b1-6)]Man(a1-6)[Gal(b1-4)GlcNAc(b1-3)Gal(b1-4)GlcNAc(b1-3)Gal(b1-4)GlcNAc(b1-2)Man(a1-3)]Man(b1-4)GlcNAc(b1-4)[Fuc(a1-6)]GlcNAc. The method, boiled down:
as §1

This note sets out measurements from the supplement of paper PMC8728848.

This is one part of the list.

B1: CFEM-PPl (Pichia pastoris), F2QPV1 (protein)
chain: AVATPPACLLACAAEVVKESSDCDALNNIQCICENEGSAIHACLESTCPDGLSSTALQSFEDVCESVGTEANLDE
Consider B1, for which the “glycan array binding signal (z-score)” value in [1] was -0.271; in [2] it was -0.179; in [3], 0.162; in experiment [4] it was 0.132; in [5] it was 0.051; in experiment [6] it was 0.16. The “glycan array binding signal (z-score)” value in [7] is -0.024; in [8] it was 0.199; in experiment [9], -0.162; in [10] it was 0.333; in experiment [11] it was -0.357; in experiment [12] it was -0.279. In addition, the “glycan array binding signal (z-score)” value is -0.046 in experiment [13]; -0.045 in experiment [14]; 0.453 in experiment [15]; 0.174 in experiment [16]; 0.302 in experiment [17]; 0.258 in experiment [18]. Moreover, the “glycan array binding signal (z-score)” value in experiment [19] is -0.06; in experiment [20], 0.383; in experiment [21] it was 0.246; in [22], 0.323.
